Laboratory results from paper PMC12136788.
The list shows a part of the results.

B1: chr20:57486015:57486016:+_ENSG00000087460_ENST00000306090|hu_mus|motif|central (ssRNA)
RNA: GGGAGUUCUACAGUCCGACGAUCCCUUUUUUUUCUUUUUCUUCUGUAGGCCGCCUUAAGCUUACUAAAUUUGGAACAUCGGAGCAAGCUGAAGGGAAGAGGGGUUUUUCAGAAUCACUGGGGGAAAAAGGAAAGGUUGCGGUGCAACAGAGGAUUGAGCAUCA
B2: 23959401_23959521_7647_CDS_ENSMUSG00000039218_ENSMUST00000088621|mouse|control|control (ssRNA)
RNA: GGGAGUUCUACAGUCCGACGAUCGGAAGAGGAAGAAGAGGAAGAGGAGGAGGAGGAGGAGCUGGAACUGGAGCUGCUAGAGCGCCUCUUCCUUUUGGCCGGGGUUGGUUCCUGAGGACGUCCCUCUCUAAUAGCCUCCUUUGGCAACAGAGGAUUGAGCAUCA
B3: chr5:128448638:128448639:+_ENSG00000066583_ENST00000173527|hu_mus|hu_hu_hu_mus_False|28_48 (ssRNA)
RNA: GGGAGUUCUACAGUCCGACGAUCGGCACUCGCCUUAAUUAGGUUCUGAAUUUCCUUGAACUUCGGGUGGUCUUUGUCAGCCACCAGCUGAAGCAGAACAGCCUCACUCGUGGUCACGAUGAUCCCAGUGCGGGCAAGACGCUCCAACAGAGGAUUGAGCAUCA
B4: chr11:77336104:77336105:-_ENSG00000074201_ENST00000525064|hu_mus|hu_hu_hu_mus_False|1_28 (ssRNA)
RNA: GGGAGUUCUACAGUCCGACGAUCCUCACACAUUGCUGUGAACAUCGCCUCCAAUGCUGACUUAUCACUGGGCACAAAUCGAAAUUCAGAAAUGGGUUCAACAUCAUCAUCACUGUCCUCAUCUUCAUCAGAGAGAGCAGGUUCCAACAGAGGAUUGAGCAUCA
B5: chr20:47733735:47733736:-_ENSG00000124214_ENST00000360426|hu_hu|FALSE|FALSE (ssRNA)
RNA: GGGAGUUCUACAGUCCGACGAUCCACAUCCUUGCCGAUACCAUGGCUGAUCAGAGGUGGCUGAGAGGAGCAAUUGAUAAGAGAUACAAAUUCGUUCUUGUUGUUUUUGGGGAAGUCUUUGUAUUCAACCUGGAAUCCCUGGACCAACAGAGGAUUGAGCAUCA
B6: chr2:103616161:103616162:-_ENSMUSG00000027184_ENSMUST00000111147|mus_mus|motif|central (ssRNA)
RNA: GGGAGUUCUACAGUCCGACGAUCCUCAUCCACUUGCUCCUUCUCACCACUGCUGAACUGUGUUUCUGCCAUGAACUGCCGGUUGACAUACUCUGUUGAUUCAACCUCACUUUGCUCUGUGUAUUCUUCCGCUGGCUCAGGUUCCAACAGAGGAUUGAGCAUCA
B7: chr8:112747817:112747818:+_ENSMUSG00000046441_ENSMUST00000056972|mus_mus|motif|central (ssRNA)
RNA: GGGAGUUCUACAGUCCGACGAUCAAUGACCUUUGGUUUUGGCUUAAAGCUGUUCUUUCUUAUUAGUUGAAGUAGUUAUAGCGGGCAAAAGUCAUACAAAAAAAAAAUCUGUAUUUCAUUUCAAUUCAAAGAAAAUGAAGCCACCAACAGAGGAUUGAGCAUCA
B8: chr13:115007635:115007636:+_ENSG00000130177_ENST00000356221|hu_mus|FALSE|FALSE (ssRNA)
RNA: GGGAGUUCUACAGUCCGACGAUCCAGUUUCAGAGCCUCUUUGUAACUGUAGGUAGCCAGGGUGCGAUUAUCUAAAGCAUCAUAGAUCUUCCCUCUCAGGAGACAAAUCGAGCUCUUUAUGGAAGACUGUGACAUCUCCCAGUCCAACAGAGGAUUGAGCAUCA
B9: chrX:20248820:20248821:+_ENSMUSG00000001924_ENSMUST00000001989|mus_mus|mus_mus_mus_hu_True|68_78 (ssRNA)
RNA: GGGAGUUCUACAGUCCGACGAUCGGCGAAGUCCGUCACCACAAAGUCAGGUUCUGCCAGUGAUGCUGGCAAGGAUUUAAAGCUAAUCUUCUUAGGUACUUUGACCUGACUGACGAUGCCUCCACGGAUGUAGUCGGAGAAGUUCAACAGAGGAUUGAGCAUCA
B10: chr7:54823571:54823572:-_ENSG00000132432_ENST00000352861|hu_mus|hu_hu_hu_mus_False|88_88 (ssRNA)
RNA: GGGAGUUCUACAGUCCGACGAUCUCCCAUGAUAGCAAAUCCUAUAGCUGUUGCCAUGGCAAUCUUCUGGAAUUCUUUUCUGUCGGGUUUGGUGCAUCUUUUAACCAGCCGAAUUGAGUCCUUUACAAACUGCCGGCUGGGCUCCAACAGAGGAUUGAGCAUCA
B11: chr8:17827181:17827182:+_ENSG00000078674_ENST00000519253|hu_hu|FALSE|FALSE (ssRNA)
RNA: GGGAGUUCUACAGUCCGACGAUCGCUUUCAAAAGGUUUUGGAAAAGCCAUAUAUUCUGUUUUUCCUGAAGAAUUCUGGGCUAAGGGUUGCUGCUGUUCACUGGGUGUAGAGAUAUUCUGAGAAAAAUCUCCAAAAUUAGAAGGCAACAGAGGAUUGAGCAUCA
B12: chr7:91631701:91631702:+_ENSG00000127914_ENST00000356239|hu_hu|FALSE|FALSE (ssRNA)
RNA: GGGAGUUCUACAGUCCGACGAUCUUCAUUUAGCUGAAUACAUUGUUGUUUGAGGUCCUCAUUUUCCUCUAUAAGUAUUUCUAUUUCUUUUUCCCACACAGAGUCUUUGGAUUUGGACUUAAUGGAGUCUAAGAAAAUCAAUCUCAACAGAGGAUUGAGCAUCA
B13: chr7:30640729:30640730:+_ENSG00000106105_ENST00000389266|hu_mus|FALSE|FALSE (ssRNA)
RNA: GGGAGUUCUACAGUCCGACGAUCCUGGAUGAUAUUGUUCUUCAAAGCACAUCCUACCGGCCCGAAGUCAUACAAUCCACUGACACCUCCAUAAAUAGCAAAAGCCUGAUCGUAGAAAAACCUCCUCUUCAACGUAUCUUCCAUCAACAGAGGAUUGAGCAUCA
B14: chr15:96202663:96202664:+_ENSMUSG00000033237_ENSMUST00000096250|mus_mus|FALSE|FALSE (ssRNA)
RNA: GGGAGUUCUACAGUCCGACGAUCACUGCUUGUGGACGGUGACCCACCCAGAGUUAACACAGGUCCAUUAGAAACUCUUUCUAGUUGGUCACCUUUGGCAGUAUCUUGCUGAGUGGCACCCGAAGUCCCUUGUGGUUCUACUGGCAACAGAGGAUUGAGCAUCA

Molecular target: T1, UNK ZnF1-3 (human, UniProt Q9C0B0 31-174)
T1 sequence: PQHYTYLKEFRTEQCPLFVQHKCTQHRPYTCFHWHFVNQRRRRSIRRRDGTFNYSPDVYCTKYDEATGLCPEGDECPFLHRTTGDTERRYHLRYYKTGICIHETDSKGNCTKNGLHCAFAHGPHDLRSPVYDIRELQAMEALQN
Experiment: nsRBNS (natural sequence RNA bind-n-seq); RBNS binding buffer (assumed for nsRBNS): 25 mM Tris pH 7.5, 150 mM KCl, 3 mM MgCl2, 0.01% Triton X-100, 500 ug/ml BSA, 20 U/ml SUPERase-In, 4 C; UNK is unkempt and MSI1 is Musashi-1; names of the RNAs are library labels; protein concentration not given here; high values mean tight binding

Point of comparison: B9, binding signal 0.581 enrichment R. Against it:
- B1 — higher, 1.66 enrichment R
- B2 — higher, 1.36 enrichment R
- B3 — higher, 0.627 enrichment R
- B4 — higher, 0.877 enrichment R
- B5 — higher, 1.71 enrichment R
- B6 — lower, 0.54 enrichment R
- B7 — higher, 0.837 enrichment R
- B8 — higher, 0.821 enrichment R
- B10 — higher, 0.63 enrichment R
- B11 — higher, 1.64 enrichment R
- B12 — lower, 0.449 enrichment R
- B13 — higher, 1.35 enrichment R
- B14 — lower, 0.454 enrichment R
